Among all 150,000 compounds or so, about 180 (0.12%) were called active. Inconclusive means that the source gave no clear call. Such entries were picked first, then a sample of the others. The call rests on the fitted dose curve; in most records, active means well fitted cell-killing curve with a large enough effect; inconclusive means small, poorly fitted or top-dose-only effect, or effect the other way; inactive means flat fitted curve, though single readings scatter. Where the call is inconclusive, the potency comes from a doubtful curve fit.
assay: GF-AFC viability counterscreen for inhibitors of alpha-synuclein gene (SNCA) expression; details: HEK-293-SNCA-luc viability, GF-AFC fluorescence, 24 h; activity change, negative = cytotoxicity: at 57.1 µM (top of the series) unless noted; further: nearly all actives have a fitted effect of over 30% in size;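 on activity change, negative = cytotoxicity: 0% = DMSO-treated cells and -100% = medium-only wells without cells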
Method in brief: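 Cytotoxicity counterscreen: after 24 h compound treatment of genome-edited SNCA-luciferase HEK-293 cells, live-cell protease substrate GF-AFC read by fluorescence after 30 min; activity scaled between DMSO (0%) and medium-only (-100%), curves Hill-fitted.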
Potency means the concentration at half of the fitted maximal effect; tags describe the fitted curve by direction and shape.

Compound | Potency | activity change, negative = cytotoxicity
COc1ccc(C(=O)NC2CCN(c3cc(-c4cccs4)[nH]n3)C2)c(OC)c1 (stereo not given) | inconclusive: 3.55 µM [cytotoxic, full curve] | –
CCN1CC2(CCN(C(=O)C(C)(C)N)CC2)CC(c2ccccc2)C1=O (stereo not given) | – | inactive: 7.56%
COc1ccc(S(=O)(=O)NCCc2csc3nc(-c4ccccc4)nn23)cc1OC | inconclusive: 22.4 µM [cytotoxic, partial curve, poor fit] | –
COCCN1C(=O)[C@H]2CN(Cc3ccccc3C(F)(F)F)C[C@H]2C1=O | inconclusive: 7.08 µM [rising, single point] | –
Cc1ccc2nc(-c3ccccn3)c(Nc3ccccc3C)n2c1 | inconclusive: 14.1 µM [cytotoxic, partial curve, poor fit] | –
CCNC(=O)[C@@H]1C[C@H](n2cc(CN(C)C(=O)NC3CCCCC3)nn2)CN1 | inconclusive: 39.8 µM [cytotoxic, single point] | –
O=C1Nc2ccc(-c3cccc(C(F)(F)F)c3)cc2C(=O)N2CCN(C(=O)c3cccc(F)c3)C[C@H]12 | – | inactive: 1.26%
N#CC1CCN(C(=O)c2nc3cccnc3n(Cc3ccccc3)c2=O)CC1 | – | inactive: 3.85%
CC1=C[C@@H](CNC(=O)C2CC2)[C@H](C(C)C)C[C@H]1Cc1nc2ccccc2n1C | inconclusive: 15.8 µM [cytotoxic, partial curve] | –
O=C1CC2(CCN(Cc3cccnc3)CC2)Oc2ccccc2N1 | inconclusive: 22.4 µM [cytotoxic, partial curve, poor fit] | –
O=C(NCc1ccccc1)c1nc2c(o1)CCN(Cc1ccc(F)cc1)CC2 | – | inactive: -4.67% [at 87.6 µM]
O=C(NCc1ccc(F)c(F)c1)c1ccc2oc(-c3ccccn3)nc2c1 | inconclusive: 8.91 µM [cytotoxic, partial curve, poor fit] | –
COCCNC(=O)Cc1c[nH]c2ncc(-c3ccccc3C)cc12 | – | inactive: 0.627% [at 87.6 µM]
CCCn1c(=N)c(C(=O)NCC2CCCO2)cc2c(=O)n3cc(C)ccc3nc21 (stereo not given) | inconclusive: 10 µM [rising, partial curve] | –
O=C(c1nc2cccnc2n(C2CC2)c1=O)N1CCCC1 | – | inactive: 4.9% [at 87.6 µM]
O=C(c1cc2n(n1)CC(c1ccc(Cl)cc1)OC2)N1CCCCC1 (stereo not given) | – | inactive: -3.23%
COc1ccc(/C=C/c2nc(C#N)c(N3CCCCC3)o2)cc1OC | inconclusive: 20 µM [rising, single point] | –
Cc1ccc(-n2c3nc(=O)n(C)c(=O)c-3cc3ccccc32)c(C)c1 | inconclusive: 5.62 µM [rising, full curve, poor fit] | –
Cc1ccc2c(C(=O)NCCc3cccnc3)cc(NC(=O)C(C)C)cc2n1 | – | inactive: -3.41%
O=C1CCC(C(=O)NC(CCn2cncn2)c2ccccc2)=NN1 (stereo not given) | – | inactive: -10.4%
CN1CCN(C(=O)c2cc(COc3ccc(F)cc3F)on2)CC1c1ccccc1 (stereo not given) | – | inactive: 6.47%
COc1cccc(NC(=O)Cn2c(=O)oc3cc(S(=O)(=O)N4CCCCC4)ccc32)c1 | inconclusive: 3.16 µM [rising, single point] | –
CC(C)c1noc(-c2cn(C3CCN(C(=O)c4ccc(F)cc4Cl)C3)nn2)n1 (stereo not given) | – | inactive: -5.6%

Compound | Potency | activity change, negative = cytotoxicity
Cc1ccccc1Cn1cc(-c2ccncc2)cc1C(=O)N1CCCC1 | – | inactive: 18.3%
Cn1c(=O)n(-c2ccc(C(C)(C)C#N)cc2)c2c3cc(C#Cc4cccnc4)ccc3ncc21 | inconclusive: 0.0733 µM [cytotoxic, full curve, poor fit] | –
Cc1cc(CN2CCC(Cc3ccc(F)cc3)CC2)n(C)n1 | – | inactive: -0.0192%
COc1ccccc1-c1ccc(C(=O)N2CCC(NC(=O)Nc3ccccc3)CC2)cc1 | – | inactive: 1.34% [at 12.5 µM]
Oc1ccccc1CN1CCC[C@H]1c1nc(-c2ccc(N3CCOCC3)nc2)no1 | – | inactive: -7.66% [at 87.6 µM]
COc1ccnc(-c2nnc3ccc(N(C)c4ccccc4)nn23)c1 | inconclusive: 35.5 µM [cytotoxic, single point] | –
O=C(CC1(O)C(=O)N(CCc2ccccc2)c2ccc(Br)cc21)c1ccccc1 (stereo not given) | inconclusive: 20 µM [cytotoxic, single point] | –
O=C(Nc1ccc(Cl)cc1)c1ccc(Cn2ccn3nc4c(c3c2=O)CCCC4)cc1 | – | inactive: -13.6%
c1ccc(Oc2ccccc2-c2cc3c(cn2)CN(Cc2ccncc2)CCN3)cc1 | – | inactive: -11.1% [at 87.6 µM]
COc1ccc(CC(=O)N2CCC(C(=O)N3CCC(c4nc5ccncc5[nH]4)C3)CC2)cc1 (stereo not given) | – | inactive: 12.9%
CN(C)CCCN1c2ccccc2Sc2ccc(Cl)cc21 | inconclusive: 1 µM [rising, full curve, poor fit] | –
CC1CCN(C(=O)CN2CCSc3ccc(S(=O)(=O)N(C)C)cc32)CC1 | inconclusive: 3.16 µM [cytotoxic, full curve, poor fit] | –
CCCC1(C)C(C#N)(C#N)C1(C#N)C#N | inconclusive: 39.8 µM [cytotoxic, single point] | –
COc1ccc(C2(O)CCC(N3CC[C@@H](NC(=O)CNC(=O)c4cccc(C(F)(F)F)c4)C3)CC2)cn1 (stereo not given in full) | – | inactive: 30.4%
COc1ccccc1CCC(=O)N1CC(F)(F)C[C@H]1c1nc(C)no1 | inconclusive: 3.98 µM [cytotoxic, single point] | –
CC1=C[C@@H](CNC(=O)C2CCCCC2)[C@H](C(C)C)C[C@H]1Cc1nc2ccccc2n1C | inconclusive: 8.91 µM [cytotoxic, full curve] | –
O=C(NC1CC1)c1ccccc1OCC1CCCN(Cc2cccc3[nH]ccc23)C1 (stereo not given) | inconclusive: 17.8 µM [cytotoxic, partial curve] | –
O=C(O)Cn1nc(C2CC2)nc1CCc1nc2ccccc2s1 | – | inactive: 13.4%
Cc1ccc(C2C=C(c3ccc(Cl)cc3)Nc3nc(NC(=O)CCC(=O)O)nn32)cc1 (stereo not given) | inconclusive: 20 µM [rising, partial curve] | –
CCOc1ccc(NC(=O)CCn2c(-c3ccc(F)cc3)cc(C(C)=O)c2C)cc1 | inconclusive: 14.1 µM [cytotoxic, partial curve, poor fit] | –
O=C(NCC(=O)N1CCCC1)c1ccc(-c2cccc(C(F)(F)F)c2)cc1 | inconclusive: 5.01 µM [cytotoxic, single point] | –
Cc1nn2c(c1-c1ccccc1C(C)C)N(C(=O)c1cc3ccccc3n1C)CCC2 | active: 35.5 µM | –

From PubChem BioAssay AID1671193 (National Center for Advancing Translational Sciences (NCATS), 2021)
